Laboratory results taken from PubChem BioAssay AID504466 (National Center for Advancing Translational Sciences (NCATS), 2011).
About 4,200 (1.3%) of roughly 330,000 compounds were called active. Inconclusive results, whose numbers are uncertain, are shown with a selection of clear calls. Calls come from the whole dose curve; as a rule, active = well fitted activation curve with a large enough effect; inconclusive = small, poorly fitted or top-dose-only effect; inactive = no such curve, though single readings can be large or run the other way. Potencies beside an inconclusive call are fits to weak or partial responses and may not hold up.

Test: qHTS screen for small molecules that induce genotoxicity in human embryonic kidney (HEK293T) cells expressing luciferase-tagged ELG1; note: nearly all actives have a fitted effect of over 60% in size
Settings: HEK293T ELG1-luciferase reporter, luminescence, 16 h; series mostly up to 46 µM
Summary of the method: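 Screening used a luciferase reporter fused to human ELG1 in HEK293T cells. Luminescence was read on a CCD plate imager after 16 hr exposure and 30 min ONE-Glo incubation.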
Potency is the fitted concentration of half-maximal effect; tags give direction and shape of the fitted curve.

Compound	Potency
O=C(COC(=O)c1ccc([N+](=O)[O-])cc1Cl)Nc1cccnc1Cl	inactive
O=C(Nc1sc2c(c1C(=O)NCc1ccco1)CCCC2)c1ccc2c(c1)OCO2	active: 10.3 µM
CC(C)CC(=O)/C(=C\c1ccc(Cl)cc1Cl)n1cncn1	inconclusive: 5.8 µM [activator, partial curve, poor fit]
CCOc1ccc(N2C(=O)C(Cl)=C(Nc3ccccc3O)C2=O)cc1	inconclusive: 1.16 µM [activator, full curve]
CCCCn1cnc2c(cnn2-c2ccc(F)cc2)c1=O	inconclusive: 18.4 µM [activator, partial curve, poor fit]
Cc1ccc(OCC(=O)Nc2ccc3c(c2)OCO3)c([N+](=O)[O-])n1	inconclusive: 20.6 µM [activator, single point]
Oc1ccc(N=Nc2ccccc2)cc1	inconclusive: 20.6 µM [activator, partial curve, poor fit]
O=C(Nc1ccc2oc(-c3ccccc3F)nc2c1)c1ncn[nH]1	inconclusive: 2.06 µM [activator, partial curve]
CSc1ccc(/C=C/C(=O)c2ccc(O)cc2)cc1	inconclusive: 20.6 µM [activator, single point]
Cn1cnnc1SCC(=O)Nc1ccccc1	inactive
COc1ccc(-c2cc(=O)c3cc(C)ccc3[nH]2)cc1	active: 13 µM
Oc1ccc(N=Nc2ccc3c(c2)OCCO3)c(O)c1	inconclusive: 1.16 µM [activator, full curve, poor fit]
C=CCn1c(SCCNC(C)=O)nc2cc(-c3ccccc3)sc2c1=O	inactive
CCOCCCNc1ccc(-c2ccccc2)nn1	active: 12.6 µM
Cc1nn2c(-c3ccccc3)nnc2c2ccccc12	inconclusive: 23.1 µM [activator, partial curve, poor fit]
Cc1cc(C)c2nc(NCc3ccccc3O)sc2c1	inconclusive: 20.6 µM [activator, single point]
OCCCNC(=S)Nc1ccc2nc(-c3ccccn3)c(-c3ccccn3)nc2c1	inactive
COc1ccc(-c2nc(C#N)c(NCc3ccccc3Cl)o2)cc1OC	inconclusive: 9.2 µM [activator, partial curve, poor fit]
O=C(O)CC1S/C(=N/N=C/C=C/c2ccccc2)NC1=O (configuration not stated)	inactive
Oc1ccc(-c2cn3ccccc3n2)cc1	inconclusive: 18.3 µM [activator, partial curve]
Brc1ccccc1OCCCn1cnc2ccccc21	active: 5.8 µM
O=C(NCC(=O)N1CCCC1)c1ccc(Cl)cc1	inactive
Clc1ccc2nc(N3CCNCC3)nc(-c3ccccc3)c2c1	inactive
COc1cc(CNCc2cc(OC)c(OC)c(OC)c2)cc(OC)c1	inactive
COc1ccc(N=CC2=C(O)c3ccccc3C2=O)c(OC)c1	active: 0.0651 µM
CCn1c(=O)[nH]c2cc(Cl)c(Cl)cc21	inconclusive: 23.1 µM [activator, partial curve, poor fit]

Compound	Potency
CSc1ncccc1C(=O)OCC(=O)NC(N)=O	inactive
COC(CNC(=O)c1ccc2c3c(onc13)-c1ccccc1C2=O)OC	inconclusive: 2.91 µM [activator, single point]
N#Cc1c(N2CCOCC2)nsc1-c1ccccc1	inconclusive: 13 µM [activator, partial curve, poor fit]
Cc1cccc(N2CSC3=C(C#N)C(c4ccc(C)o4)CC(=O)N3C2)c1 (configuration not stated)	inconclusive: 20.6 µM [activator, single point]
Cc1cccc2nc(CSc3ccc(Cl)cc3)cn12	inconclusive: 5.17 µM [activator, partial curve]
CN(C)c1ccc(/C=N/NC(=S)NCc2ccco2)cc1	inactive
C[C@@H](NC(=O)[C@@H]1Cc2ccccc2CN1)C(=O)Nc1ccc2c(c1)OCCO2	inconclusive: 14.6 µM [activator, partial curve]
c1ccc(-c2ccc(-c3csnn3)cc2)cc1	inactive
CCCCC#Cc1ccc2c(c1)COc1c3ccccc3nn1-2	inconclusive: 1.83 µM [activator, full curve]
Cc1c(N(C)S(=O)(=O)c2cc(C(=O)N3CCCC3)ccc2Cl)c(=O)n(-c2ccccc2)n1C	inactive
COc1ccc(-n2nc(C(=O)NCC(=O)NCc3ccco3)c3ccccc3c2=O)cc1	inactive
CC(C)CCNC(=O)C(=O)Nc1ccccc1	inconclusive: 7.3 µM [activator, partial curve]
Cc1ccc(NC(=O)c2cc(N(C)C)ccc2[P+](=O)O)cc1	inconclusive: 23.1 µM [activator, partial curve, poor fit]
C#CCN1C(=O)S/C(=C/c2cc(C)n(CC)c2C)C1=O	inconclusive: 5.17 µM [activator, partial curve]
O=C(O)Cc1sc(Nc2ccc(Cl)cc2)nc1-c1cccs1	inconclusive: 16.4 µM [activator, partial curve, poor fit]
O=C1c2ccccc2CN1CCSC(=S)N1CCOCC1	inconclusive: 9.2 µM [activator, partial curve]
Nc1cc(N)nc(SCc2ccccc2)n1	inconclusive: 16.4 µM [activator, partial curve]
C=CCn1c(=O)c(C(=O)Nc2ccccc2C)c(O)c2ccccc21	inconclusive: 8.2 µM [activator, partial curve]
CC(=O)Nc1ccc2c(c1)N(S(=O)(=O)c1cccs1)CCC2	inconclusive: 20.6 µM [activator, single point]
Cn1c(=O)n(C)c2cc(NS(=O)(=O)c3ccc(Br)s3)ccc21	inconclusive: 18.3 µM [activator, single point]
O=C(O)c1ccc(N=Nc2c(O)[nH]c3cc(Cl)ccc23)cc1	active: 9.2 µM
COc1cccc(N/N=C/c2cccc(Br)c2O)c1	inconclusive: 18.3 µM [activator, partial curve]
CC(C)(C)c1ccc(C(=O)NCCC(=O)N2CCCC2)cc1	active: 20.6 µM
Cc1cccc(C2=NN(c3ccc(Br)cc3)[C@@H](C(=O)N3CCOC3=O)[C@@H]2C)c1	inactive
COc1ccc2c(c1)[C@@H]1[C@H](CO2)[C@H](c2ccccc2)[C@]2(C)C(=O)NCC(=O)N12	inactive
Cc1nc(N2CCN(C(=O)c3ccco3)CC2)c(C#N)c2c1CCCC2	inactive

Compound	Potency
O=C1C(Cl)=C(NC2CCCCC2)C(=O)N1c1ccc(Cl)cc1	inconclusive: 25.9 µM [activator, partial curve, poor fit]
CC(C)CN(C(=O)CN(C)CC(=O)Nc1ccc(Cl)c(C(F)(F)F)c1)c1c(N)n(CC(C)C)c(=O)[nH]c1=O	inactive
Cc1ccc(NS(=O)(=O)c2ccc(C(=O)NCc3cccnc3)cc2)cc1	inconclusive: 11.6 µM [activator, partial curve]
O=C(Nc1ccc2c(c1)CCC2)C1CCCN(c2ncccn2)C1 (configuration not stated)	inconclusive: 8.2 µM [activator, partial curve, poor fit]
COc1ccc(CNc2nc3c(c(=O)[nH]c(=O)n3C)n2Cc2ccccc2C)cc1	inconclusive: 32.6 µM [activator, partial curve, poor fit]
O=C(Nc1ccc2c(c1)OCCO2)c1ccc(Cl)c([N+](=O)[O-])c1	inconclusive: 11.6 µM [activator, partial curve]
O=c1c2c3c(sc2nc2n1CCCCC2)CCCCC3	inconclusive: 16.4 µM [activator, partial curve, poor fit]
COc1ccc(C2CC(c3cccs3)=NN2C(=O)COC(=O)c2cncc(Br)c2)cc1OC (configuration not stated)	inactive
Cc1nc2c(ccc3c2ccc2nc(C)sc23)s1	inconclusive: 5.17 µM [activator, full curve, poor fit]
Cc1cc(C)c2c(c1)NC(c1cc3c(cc1Br)OCO3)C1CC=CC21 (configuration not stated)	inactive
COc1cc(/C=N/N=C(N)N)ccc1OCc1ccc(Cl)cc1	active: 9.2 µM
O=C(Nc1ccc(NC(=O)C2CC2)nc1)c1cccs1	inconclusive: 16.4 µM [activator, single point]
O=C(COc1ccc2oc3c(c2c1)CCCC3)Nc1ccccn1	active: 16.4 µM
Cc1cccc(NC(=S)N(CCc2ccncc2)C(C)C)c1C	inactive
Cc1c(C(=O)Nc2ccccn2)sc2nc3n(c(=O)c12)CCC3	inconclusive: 3.66 µM [activator, partial curve]
COc1ccccc1-n1cnc2cc(NCc3ccco3)ccc21	inconclusive: 18.4 µM [activator, single point]
O=C(Nc1cccc(-n2cnnn2)c1)C1CCCN(Cc2cccc(C(F)(F)F)c2)C1 (configuration not stated)	inactive
CCOC(=O)c1ccoc1CSCc1ccc(C(=O)OC)o1	active: 20.6 µM
c1ccc2[nH]c(SCc3cscn3)nc2c1	inconclusive: 18.4 µM [activator, partial curve]
C=CCn1c(C)cc(C(=O)COc2ccc(N(C)S(=O)(=O)c3ccc(NC(C)=O)cc3)cc2)c1C	inactive
CCCCOc1ccc(-n2nc(C)cc2C)nn1	inactive
O=C(Nc1nc2ccccc2[nH]1)c1ccc(F)c(S(=O)(=O)N2CCOCC2)c1	inactive
O=c1[nH][nH]cc1C=Nc1cc(Cl)ccc1O	inactive
COc1ccc2cc3cc(C(=O)N4CCCCCC4)oc3nc2c1	active: 2.59 µM
Cc1ccc(CSc2nc(N)cc(N)n2)cc1	inconclusive: 20.6 µM [activator, single point]
